This note sets out measurements from patent US9050375B2, “Bi-specific digoxigenin binding antibodies” (priority 2009, dated 2015).

The subject of assay [1] is AHA1 mRNA in MCF-7 breast cancer cells. Kind of assay: bDNA quantification after DIG-labeled siRNA-lipid nanoparticles with <Target-DIG> antibodies. In kind it is cell-based. The settings on record: no siRNA; 3.24 nM antibody; MCF-7, 12 h. The protocol:
DIG-labeled siRNA-lipid nanoparticles containing 1 pmol of AHA1-, DIG-coupled AHA1-, or luciferase (LUC)-siRNAs were incubated with 3.24 pmol of bispecific antibodies directed against either the tumor-associated LewisY oligosaccharide and DIG <LeY-DIG> or against the sialic acid-binding transmembrane protein, CD22, and DIG <CD22-DIG> or with Dulbecco's Phosphate Buffered Saline (D-PBS) (Invitrogen, Carlsbad, Calif.) in a final volume of 200 μl Opti-MEM® (Invitrogen GmbH, Darmstadt, Germany) at RT for 30 min.
MCF-7 cells were seeded on a 96-well plate with a density of 15,000 cells/well in 80 μl medium (RPMI 1640 Medium, 10% fetal calf serum, 100 U/ml penicillin/streptomycin; Biochrom AG, Berlin, Germany) and incubated overnight in a cell incubator (37° C., 95% H2O, 5% CO2). Following pre-incubation of DIG-labeled siRNA-lipid nanoparticles with <Target-DIG> bispecific antibodies (see above), 20 μl of the mixtures were added to MCF-7 cells, leading to a final volume of 100 μl containing 1 nM siRNA and no antibodies (no AB) or 1 nM siRNA and 3.24 nM of either <LeY-DIG> (LeY) or <CD22-DIG> (CD22) antibodies. Cells were incubated for 12 hours in a cell incubator. […] After incubation, cells were lysed and AHA1- and GAPDH-mRNA concentrations were quantified using a commercially available bDNA-quantification system (Affymetrix Inc., Fremont, Calif.). […]

The subject of assay [2] is LeY positive MCF7 cells. The assay can be described thus: FACS analysis of <LeY>-<DIG> and DIG-eGFP. In kind it is cell-based. The settings on record: 3.43 nM, 4° C. The protocol: For these analyses we used LeY positive MCF7 cells and the bispecific <LeY>-<DIG> antibody. 3×10^5 cells were seeded per well of a 96-well-plate and used immediately. 3.43 nM of the <LeY>-<DIG> bispecific antibody in FACS buffer (PBS containing 5% FCS) was added to the wells. A <DIG> antibody at the same concentration was used as a non-targeting control. For detection of bound antibodies, a secondary Cy5 labeled antibody (Jackson Immunoresearch 709-176-1490; Cy5 F(ab′)2 Donkey anti-human IgG (H+L)) was added to a final concentration of 3.43 nM. After washing in FACS buffer the cells were incubated for one hour at 4° C. and then analyzed with the FACS canto II (BD Biosciences). To show <LeY>-<DIG> bispecific antibody mediated eGFP delivery to cells, 3.43 nM of the <LeY>-<DIG> bispecific antibody in FACS buffer (PBS containing 5% FCS) pre-incubated with a twofold molar amount of both [1:2] and [1:3] DIG-eGFP were added to the wells. After washing in FACS buffer the cells were analyzed with the FACS canto II (BD Biosciences).
To analyze the ability of DIG-eGFP to monitor internalization, we performed FACS experiments. For these analyses we used LeY positive MCF7 cells and the bispecific <LeY>-<DIG> antibody. 3×10^5 cells were seeded per well of a 96-well-plate and used immediately. […] The cells were then analyzed with the FACS canto II (BD Biosciences).

B1: LeY-DIG: bispecific antibody against LewisY antigen (B3-derived) and DIG; SEQ. ID NO. 57, 58 (antibody)
heavy: DVKLVESGGGLVQPGGSLKLSCATSGFTFSDYYMYWVRQTPEKRLEWVAYISNDDSSAAYSDTVKGRFTISRDNARNTLYLQMSRLKSEDTAIYYCARGLAWGAWFAYWGQGTLVTVSS[human IgG1 constant region not shown]GGGGSGGGGSQVQLVESGGGLVKPGGSLRLSCAASGFTFSDYAMSWIRQAPGKCLEWVSSINIGATYIYYADSVKGRFTISRDNAKNSLYLQMNSLRAEDTAVYYCARPGSPYEYDKAYYSMAYWGQGTTVTVSSGGGGSGGGGSGGGGSDIQMTQSPSSLSASVGDRVTITCRASQDIKNYLNWYQQKPGKAPKLLIYYSSTLLSGVPSRFSGSGSGTDFTLTISSLQPEDFATYYCQQSITLPPTFGCGTKVEIK
light: DVLMTQSPLSLPVSLGDQASISCRSSQIIVHSNGNTYLEWYLQKPGQSPKLLIYKVSNRFSGVPDRFSGSGSGTDFTLKISRVEAEDLGVYYCFQGSHVPFTFGSGTKLEIKRTVAAPSVFIFPPSDEQLKSGTASVVCLLNNFYPREAKVQWKVDNALQSGNSQESVTEQDSKDSTYSLSSTLTLSKADYEKHKVYACEVTHQGLSSPVTKSFNRGEC
Consider B1, for which the “relative AHA1-mRNA concentration, only antibody” value in assay [1] came out at 94.6%. The “binding to MCF7 cells (FACS, Cy5 labeled secondary antibody)” value in assay [2] is “clear binding to the LeY expressing MCF7 cells”.
